IC50 data for 28 compounds are collected here from PubChem BioAssay (NCATS).

This is one part of the list. These are further read-outs of the screen, such as a control signal, another cell line or another target. No call is given for them. Most of these compounds were active or inconclusive in the main read-out, so they are no random draw. The note in brackets gives the kind of curve behind each potency; many fits are weak.
Tags tell the direction and shape of the fitted curve.

The target of this test is Histamine N-methyltransferase (Homo sapiens) (UniProt P50135). Kind of test: Confirmatory Screen for Target Class Profiling of Small Molecule Inhibitors of Methyltransferases (AID 1745852).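 Also: inhibitor potency for blocking SAH production.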 Conditions: MTase-Glo luminescence, SAH detection, recombinant enzyme; measured here: HNMT inhibition potency.
Chain of UniProt P50135 (P50135 whole entry, looked up): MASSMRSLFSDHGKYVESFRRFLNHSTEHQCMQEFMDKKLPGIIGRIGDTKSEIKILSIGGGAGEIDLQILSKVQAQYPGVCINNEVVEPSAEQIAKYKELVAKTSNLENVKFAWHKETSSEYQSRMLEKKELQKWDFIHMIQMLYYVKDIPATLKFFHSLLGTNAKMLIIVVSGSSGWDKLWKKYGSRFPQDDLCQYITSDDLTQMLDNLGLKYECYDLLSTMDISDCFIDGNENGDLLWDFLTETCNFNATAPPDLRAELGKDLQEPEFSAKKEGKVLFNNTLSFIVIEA
On to `CCN(CC)c1ccc2c(O)c(C=Nc3ccc(CC(=O)O)c(-c4c5c(nc6ccccc46)CCC(C(=O)NN)C5)c3)c(=O)oc2c1` (stereo not drawn), for which the half-inhibitory concentration (IC50) was 7.64 µM [falling, partial curve].

For the compound `CN(C)CCOCC1(C)COc2ccc(C(=O)Nc3ccc4[nH]ccc4c3)cc2N1` (stereo not drawn), the IC50 is 7.84 µM [falling, full curve].

`Cc1ccc(Cn2c(=O)c3ccccc3n3c(CCC(=O)NCCCN4CCC(C)CC4)nnc23)cc1`: the IC50 is 6.07 µM [falling, full curve].

Take `O=C(OCc1ccccc1)N1CCOCC12CCN(Cc1c[nH]c3ccccc13)CC2`: the IC50 was 31.2 µM [falling, partial curve].

As for `CC(=O)Nc1cccc(-c2cc3c(cn2)CN(Cc2ccccc2)CCN3)c1`, the IC50 was 0.879 µM [falling, full curve].

As for `O=C(CCc1nnc2n(Cc3ccc(F)cc3)c(=O)c3ccccc3n12)N1CCC(N2CCCCC2)CC1`, the half-inhibitory concentration (IC50) was 6.81 µM [falling, partial curve].

In the case of `O=C(CCc1nnc2n(Cc3ccc(Cl)cc3)c(=O)c3ccccc3n12)N1CCC(N2CCCCC2)CC1`, the IC50 was 3.41 µM [falling, full curve].

With `CCn1c(-c2nonc2N)nc2c(C#CC(C)(C)O)ncc(OCC3CCCNC3)c21` (stereo not drawn), the IC50 was 24.1 µM [falling, single point].

On to `COc1ccc(NC(=O)c2ccc(-c3ccc(C(=N)N)cc3C)cc2)cc1N1CCN(C)CC1`, for which the IC50 is 15.2 µM [falling, partial curve].

Regarding `c1cc(NCCc2c[nH]c3ccccc23)cc(Nc2ccncc2)c1`, the IC50 is 0.341 µM [falling, full curve].

In the case of `CCN(CC)CCNC(=O)CCCc1nnc2n3nc(-c4ccccc4)nc3c3ccccc3n12`, the IC50 was 6.81 µM [falling, full curve].

For the compound `Cn1c(CNc2ccc(C(=N)N)cc2)nc2cc(C(=O)N(CCC(=O)O)c3ccccn3)ccc21`, the IC50 is 21.5 µM [falling, partial curve].

In the case of `CCN(CC)CCCNC(=O)CCc1nnc2n(CCc3ccccc3)c(=O)c3ccccc3n12`, the IC50 is 15.2 µM [falling, partial curve].

Take `CNC(=O)NCCc1ncc(C)n1C1CCCCCCC1`: the IC50 is 19.2 µM [falling, partial curve].

`Cc1cnc(CCNC(=O)Nc2ccc3c(c2)OCCO3)n1C1CCC1`: the IC50 was 15.2 µM [falling, partial curve].

`CCN(CC)CCCNC(=O)CCCc1nnc2n3nc(-c4ccccc4)nc3c3ccccc3n12`: the IC50 is 15.2 µM [falling, partial curve].

Take `O=C(CCc1nnc2n(Cc3ccc(Cl)cc3)c(=O)c3ccccc3n12)NCCN1CCCC1`: the IC50 was 12.1 µM [falling, partial curve].

As for `O=C(N[C@H](C1CCNCC1)C1CC(O)C1)c1ccc2nccnc2c1` (stereo partly drawn), the IC50 was 21.5 µM [falling, partial curve].

`CN(C)[C@@H]1CCc2[nH]c3ccc(NC(=O)c4ccc(F)cc4)cc3c2C1`: the IC50 is 19.2 µM [falling, partial curve].

In the case of `COc1ccc(OC)c(CN2CCNc3cc(-c4ccnc(C)c4)ncc3C2)c1`, the IC50 is 11.1 µM [falling, full curve].

With `Cn1c(=O)n(C)c2cc(S(=O)(=O)N3CCN(C4CCCCC4)CC3)c(Cl)cc21`, the IC50 is 15.2 µM [falling, partial curve].

Regarding `COc1ccc2nc([C@H]3CCN(C4CCCCC4)C3)[nH]c2c1`, the IC50 was 31.2 µM [falling, partial curve].

As to `CC1CCCCN1CCCNC(=O)Cn1ccc2cc(S(=O)(=O)N3CCCCC3)ccc21` (stereo not drawn), the IC50 is 10.8 µM [falling, partial curve].

Take `CCCCN1C(=O)c2cc(C(=O)Nc3cc(C)cc(C)c3)nn2CC1(C)C(=O)NC1CCCC1` (stereo not drawn): the IC50 is 13.6 µM [falling, partial curve].

With `COc1cc(N2CCC(O)CC2)ccc1Nc1cc(Nc2ccccc2S(=O)(=O)C(C)C)c2cc[nH]c2n1`, the IC50 is 10.6 µM [falling, partial curve].

As to `COc1cccc2c1OCCCN(c1cc(C3CC(O)C3)nc(N)n1)C2` (stereo not drawn), the IC50 was 19.2 µM [falling, partial curve].

Take `COc1cc2c(NC3CCN(C4CCCCC4)CC3)nc(N3CCCN(C(C)C)CC3)nc2cc1OCCCN1CCCCC1`: the IC50 is 19.3 µM [falling, partial curve].

`COc1cc2c(NC3CCN(C(C)C)CC3)nc(N3CCC(F)(F)CC3)nc2cc1OCCCN1CCCC1`: the IC50 is 12.1 µM [falling, partial curve].

For orientation: IC50 means the midpoint of a concentration-inhibition curve.
